# According to the supplement of paper PMC12067093, “Discovery and optimisation of a covalent ligand for TRIM25 and its application to targeted protein ubiquitination” (Chemical Science, 2025):
# Targets with the largest changes are over-represented here; the source holds about 21,000 in all.
# Compound: CC1Cc2ccccc2N1C(=O)C1CCCN(C1)C(=O)CCl (mixture of isomers) [TRIM25 ligand 11 (diastereomer mixture)]
# Assay: probe-labelled cysteine peptide fold change vs DMSO (competition) (log2 fold change); higher = less target engagement (more negative = stronger competition)
# Conditions: 50 µM; THP-1; incubation time: 4 h
# 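Further: competitive chemoproteomic profiling in live THP-1 cells with an iodoacetamide desthiobiotin (IA-DTB) probe, comparing probe-labelled peptide intensities in compound-treated cells against DMSO-treated controls.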
# Chain of UniProt A9UHW6 (A9UHW6 whole entry, looked up): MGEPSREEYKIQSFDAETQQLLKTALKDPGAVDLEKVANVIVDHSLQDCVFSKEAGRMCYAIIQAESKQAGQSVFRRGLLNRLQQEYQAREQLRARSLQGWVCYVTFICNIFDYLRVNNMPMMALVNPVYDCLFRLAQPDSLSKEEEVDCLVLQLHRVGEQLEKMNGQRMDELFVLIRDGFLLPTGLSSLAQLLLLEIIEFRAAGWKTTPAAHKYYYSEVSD
target,measurement,value
MIF4GD_A9UHW6_150_EEEVDCLVLQLHR (UniProt A9UHW6),probe-labelled cysteine peptide fold change,0.181
